From PMC4274898
No constants are given. Whether binding was seen depends on the method and setting. Some results given as binding are weak or reduced against the parent protein; the word gives no strength.

T1: ARF10 (Arabidopsis thaliana) (UniProt Q9SKN5)
T1 sequence: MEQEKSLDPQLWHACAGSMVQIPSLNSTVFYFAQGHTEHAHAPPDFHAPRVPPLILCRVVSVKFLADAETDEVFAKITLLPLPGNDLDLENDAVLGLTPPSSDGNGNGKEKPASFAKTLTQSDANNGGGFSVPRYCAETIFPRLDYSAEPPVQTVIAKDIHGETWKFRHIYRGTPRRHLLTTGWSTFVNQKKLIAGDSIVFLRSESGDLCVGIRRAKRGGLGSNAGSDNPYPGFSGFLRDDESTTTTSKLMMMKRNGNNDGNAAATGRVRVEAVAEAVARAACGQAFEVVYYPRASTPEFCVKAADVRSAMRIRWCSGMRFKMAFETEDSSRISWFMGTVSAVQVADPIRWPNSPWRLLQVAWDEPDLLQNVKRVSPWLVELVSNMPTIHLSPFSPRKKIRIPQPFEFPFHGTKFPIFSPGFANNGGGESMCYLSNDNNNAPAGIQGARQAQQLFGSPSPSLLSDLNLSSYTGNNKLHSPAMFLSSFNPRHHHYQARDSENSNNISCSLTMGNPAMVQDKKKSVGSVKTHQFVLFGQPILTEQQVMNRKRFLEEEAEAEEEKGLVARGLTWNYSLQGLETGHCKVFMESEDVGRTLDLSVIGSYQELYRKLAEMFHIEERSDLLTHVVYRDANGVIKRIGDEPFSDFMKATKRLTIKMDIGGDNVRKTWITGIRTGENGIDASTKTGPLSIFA

T2: ARF16 (Arabidopsis thaliana) (UniProt Q93YR9)
T2 sequence: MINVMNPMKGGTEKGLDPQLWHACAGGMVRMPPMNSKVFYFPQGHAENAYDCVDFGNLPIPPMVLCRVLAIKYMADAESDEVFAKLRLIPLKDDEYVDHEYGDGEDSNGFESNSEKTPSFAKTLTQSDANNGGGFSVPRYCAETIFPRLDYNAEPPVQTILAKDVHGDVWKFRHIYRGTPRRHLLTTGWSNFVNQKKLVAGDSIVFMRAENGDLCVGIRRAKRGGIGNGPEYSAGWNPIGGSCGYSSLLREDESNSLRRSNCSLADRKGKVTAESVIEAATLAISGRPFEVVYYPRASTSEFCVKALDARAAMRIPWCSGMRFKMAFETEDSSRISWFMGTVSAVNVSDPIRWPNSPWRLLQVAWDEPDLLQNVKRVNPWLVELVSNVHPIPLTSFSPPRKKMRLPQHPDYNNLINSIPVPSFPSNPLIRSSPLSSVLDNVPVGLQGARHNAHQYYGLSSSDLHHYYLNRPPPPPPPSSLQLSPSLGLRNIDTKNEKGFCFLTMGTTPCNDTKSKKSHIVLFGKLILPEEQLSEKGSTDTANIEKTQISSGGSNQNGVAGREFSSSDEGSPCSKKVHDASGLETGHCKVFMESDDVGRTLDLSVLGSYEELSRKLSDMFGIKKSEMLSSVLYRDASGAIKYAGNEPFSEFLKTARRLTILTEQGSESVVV

T3: ARF17 (Arabidopsis thaliana) (UniProt Q84WU6)
T3 sequence: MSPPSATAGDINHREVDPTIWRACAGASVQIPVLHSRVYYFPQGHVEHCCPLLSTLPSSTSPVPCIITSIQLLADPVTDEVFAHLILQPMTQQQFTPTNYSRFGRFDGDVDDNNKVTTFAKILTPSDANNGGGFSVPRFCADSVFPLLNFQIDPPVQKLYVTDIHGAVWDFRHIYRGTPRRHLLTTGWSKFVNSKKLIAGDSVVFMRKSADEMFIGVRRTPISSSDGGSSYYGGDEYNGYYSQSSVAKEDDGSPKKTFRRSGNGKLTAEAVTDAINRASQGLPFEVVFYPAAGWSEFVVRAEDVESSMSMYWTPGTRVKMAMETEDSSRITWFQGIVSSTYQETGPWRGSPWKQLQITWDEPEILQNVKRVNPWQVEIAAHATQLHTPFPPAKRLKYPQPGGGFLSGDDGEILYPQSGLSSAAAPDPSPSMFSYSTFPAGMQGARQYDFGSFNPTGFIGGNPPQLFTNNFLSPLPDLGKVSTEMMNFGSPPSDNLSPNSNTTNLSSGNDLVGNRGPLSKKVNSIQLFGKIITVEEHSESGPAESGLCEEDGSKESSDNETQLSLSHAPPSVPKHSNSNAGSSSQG


What was measured:
Assay in all cases: two-hybrid; S. cerevisiae AH109 co-transformed with pGBKT7-ARF (bait) and pGADT7-Aux/IAA (prey); growth on SD/-Ade-His-Leu-Trp against SD/-Leu/-Trp; at least 10 independent colonies; serial dilutions for strength
[1] = target: T1, ARF10 (Arabidopsis thaliana)
[2] = target: T2, ARF16 (Arabidopsis thaliana)
[3] = target: T3, ARF17 (Arabidopsis thaliana)

Binder | binding [1] | binding [2] | binding [3]
Aux/IAA32 (protein, UniProt Q8RYC6 1-191) MDPNTPADFFKGSSKFHTYYSQTKKGGGVIDLGLSLRTIQHETYLPPARMIGLDGYGELIDWSQPSYNSITQLKSEDTGHQRLAQGYYNNEGESRGKYAYVKVNLDGLVVGRKVCLVDQGAYATLALQLNDMFGMQTVSGLRLFQTESEFSLVYRDREGIWRNVGDVPWKEFVESVDRMRIARRNDALLPF | binds | binds | –
Aux/IAA6 (protein, UniProt Q38824 1-189) MAKEGLALEITELRLGLPGDNYSEISVCGSSKKKKRVLSDMMTSSALDTENENSVVSSVEDESLPVVKSQAVGWPPVCSYRRKKNNEEASKAIGYVKVSMDGVPYMRKIDLGSSNSYINLVTVLENLFGCLGIGVAKEGKKCEYIIIYEDKDRDWMLVGDVPWQMFKESCKRLRIVKRSDATGFGLQQD | no binding | – | –
Aux/IAA8 (protein, UniProt Q38826 1-321) MSYRLLSVDKDELVTSPCLKERNYLGLSDCSSVDSSTIPNVVGKSNLNFKATELRLGLPESQSPERETDFGLLSPRTPDEKLLFPLLPSKDNGSATTGHKNVVSGNKRGFADTWDEFSGVKGSVRPGGGINMMLSPKVKDVSKSIQEERSHAKGGLNNAPAAKAQVVGWPPIRSYRKNTMASSTSKNTDEVDGKPGLGVLFVKVSMDGAPYLRKVDLRTYTSYQQLSSALEKMFSCFTLGQCGLHGAQGRERMSEIKLKDLLHGSEFVLTYEDKDGDWMLVGDVPWEIFTETCQKLKIMKGSDSIGLAPGAVEKSKNKERV | – | – | binds
Aux/IAA9 (protein, UniProt Q38827 1-338) MSPEEELQSNVSVASSSPTSNCISRNTLGGLKEHNYLGLSDCSSVGSSTLSPLAEDDKATISLKATELTLGLPGSQSPARDTELNLLSPAKLDEKPFFPLLPSKDEICSSSQKNNASGNKRGFSDTMDQFAEAKSSVYTEKNWMFPEAAATQSVTKKDVPQNIPKGQSSTTNNSSSPPAAKAQIVGWPPVRSYRKNTLATTCKNSDEVDGRPGSGALFVKVSMDGAPYLRKVDLRSYTNYGELSSALEKMFTTFTLGQCGSNGAAGKDMLSETKLKDLLNGKDYVLTYEDKDGDWMLVGDVPWEMFIDVCKKLKIMKGCDAIGLAAAPRAMEKSKMRA | – | – | binds
Aux/IAA13 (protein, UniProt Q38831 1-247) MITELEMGKGESELELGLGLSLGGGTAAKIGKSGGGGAWGERGRLLTAKDFPSVGSKRAADSASHAGSSPPRSSSQVVGWPPIGSHRMNSLVNNQATKSAREEEEAGKKKVKDDEPKDVTKKVNGKVQVGFIKVNMDGVAIGRKVDLNAHSSYENLAQTLEDMFFRTNPGTVGLTSQFTKPLRLLDGSSEFVLTYEDKEGDWMLVGDVPWRMFINSVKRLRVMKTSEANGLAARNQEPNERQRKQPV | no binding | – | binds
Aux/IAA15 (protein, UniProt Q9C966 1-179) MSPEEYVRVWPDSGDLGGTELTLALPGTPTNASEGPKKFGNKRRFLETVDLKLGEAHENNYISSMVTNDQLVGWPPVATARKTVRRKYVKVALDGAAYLRKVDLGMYDCYGQLFTALENMFQGIITICRVTELERKGEFVATYEDKDGDLMLVGDVPWMMFVESCKRMRLMKTGDAIGL | – | – | binds
Aux/IAA16 (protein, UniProt O24407 1-236) MINFEATELRLGLPGGNHGGEMAGKNNGKRGFSETVDLKLNLSSTAMDSVSKVDLENMKEKVVKPPAKAQVVGWPPVRSFRKNVMSGQKPTTGDATEGNDKTSGSSGATSSASACATVAYVKVSMDGAPYLRKIDLKLYKTYQDLSNALSKMFSSFTIGNYGPQGMKDFMNESKLIDLLNGSDYVPTYEDKDGDWMLVGDVPWEMFVDSCKRIRIMKGSEAIGLAPRALEKCKNRS | – | – | binds
Aux/IAA33 (protein, UniProt Q9FKM7 1-171) MNSFEPQSQDSLQRRFHQDNSTTQQPRDTTTPFIPKPASKNHNNSNSSSGAAGRSFQGFGLNVEDDLVSSVVPPVTVVLEGRSICQRISLDKHGSYQSLASALRQMFVDGADSTDDLDLSNAIPGHLIAYEDMENDLLLAGDLTWKDFVRVAKRIRILPVKGNTRQVKRNE | binds | binds | binds
Aux/IAA34 (protein, UniProt Q9C5X0 1-185) MYCSDPPHPLHLVASDKQQKDHKLILSWKKPTMDSDPLGVFPNSPKYHPYYSQTTEFGGVIDLGLSLRTIQHEIYHSSGQRYCSNEGYRRKWGYVKVTMDGLVVGRKVCVLDHGSYSTLAHQLEDMFGMQSVSGLRLFQMESEFCLVYRDEEGLWRNAGDVPWNEFIESVERLRITRRNDAVLPF | binds | binds | binds
Aux/IAA5 (protein, UniProt P33078 1-163) MANESNNLGLEITELRLGLPGDIVVSGESISGKKRASPEVEIDLKCEPAKKSQVVGWPPVCSYRRKNSLERTKSSYVKVSVDGAAFLRKIDLEMYKCYQDLASALQILFGCYINFDDTLKESECVPIYEDKDGDWMLAGDVPWEMFLGSCKRLRIMKRSCNRG | binds | binds | binds
